Data from PubChem BioAssay AID1508623 (National Center for Advancing Translational Sciences (NCATS), 2021).
Out of some 48,000 compounds screened, about 450 (0.94%) were called active. Inconclusive means that the source gave no clear call. Such entries were picked first, then a sample of the others. Calls come from the whole dose curve; as a rule, active = well fitted inhibition curve with a large enough effect; inconclusive = small, poorly fitted or top-dose-only effect; inactive = no such curve, though single readings can be large or run the other way. A potency beside an inconclusive call is a rough fit, not a confirmed value.

Assay: Primary qHTS for Identification of Small Molecule Inhibitors of Huntingtin Promoter Activity; note: nearly all actives have a fitted effect of over 50% in size
Conditions: HEK293 HTT promoter firefly luciferase reporter (activity 0% = vehicle and -100% = no light), 24 h; series mostly up to 57.5 µM
Method in brief: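 Quantitative HTS used concentration series of up to 57.5 uM final on HEK293 luciferase reporter cells, 24 h at 37 degrees C. Readout was Dual-Glo firefly luminescence.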
Potency is the fitted concentration of half-maximal effect; tags give direction and shape of the fitted curve.

Potency, active:
CCOC(=O)c1oc2ccc(S(=O)(=O)n3nc(-c4ccccc4OC)cc3N)cc2c1C 12.6 µM

Potency, inconclusive:
COc1ccc(OC)c(CNC(=O)CCCn2nc(C)c3c(C)n(-c4ccc(C)cc4)nc3c2=O)c1 25.1 µM [inhibitor, single point], CCn1ccc2cc(S(=O)(=O)N3CCCN(C(=O)Nc4cc(Cl)ccc4C)CC3)ccc21 39.8 µM [inhibitor, single point], O=C(Nc1ccc2oc(-c3cccnc3)nc2c1)c1ccc(-c2ccccc2)o1 39.8 µM [inhibitor, single point], CCCc1ccc(OCC(=O)N2CCN(C(=O)COc3ccc(CCC)cc3OC)CC2)c(OC)c1 39.8 µM [inhibitor, single point], CCC1CCCCN1C(=O)CSc1nc2c([nH]c3ccccc32)c(=O)n1-c1cccc(OC)c1 (configuration not stated) 31.6 µM [inhibitor, single point], Cc1ccc(-n2ccnc(NCCc3ccc(S(N)(=O)=O)cc3)c2=O)cc1C 28.2 µM [inhibitor, partial curve, poor fit], CCOC(=O)C1=C(CN2CCN(c3ccccc3F)CC2)NC(=O)NC1c1ccc(OC)cc1 (configuration not stated) 39.8 µM [inhibitor, single point], COc1cc2c(C(=O)N3CCN(c4ccc(C)cc4)C(C)C3)cn(CC(C)C)c(=O)c2cc1OC (configuration not stated) 31.6 µM [inhibitor, single point], COC(=O)C1=C(C)NC(C)=C(C(=O)O[C@@H]2CCCN(Cc3ccccc3)C2)[C@@H]1c1cccc([N+](=O)[O-])c1 39.8 µM [inhibitor, single point], CCc1ccc(NC(=O)Cn2ccn(-c3cccc(Cl)c3)c(=O)c2=O)cc1 17.8 µM [inhibitor, partial curve, poor fit], COc1ccc(C(=O)N2CCC(c3ccncc3)CC2)cc1OC 10 µM [inhibitor, partial curve, poor fit], CCOc1ccccc1C1CC(=O)NC(C)=C1C(=O)OCc1ccc(C)cc1 (configuration not stated) 31.6 µM [inhibitor, single point], CCOC(=O)c1cc(-c2ccc(F)cc2)n(CC(=O)NC2CCCCC2)c1C 4.47 µM [inhibitor, single point], CCOc1ccc(-c2ccc(NS(=O)(=O)c3cc(C)c(C)cc3C)cc2)nn1 22.4 µM [inhibitor, single point], CCOc1ccc(CCNC(=O)c2ccc(CS(=O)(=O)Cc3ccccc3Cl)o2)cc1OCC 17.8 µM [inhibitor, partial curve, poor fit], COc1ccccc1NC(=O)Cn1c(=O)n(Cc2ccccc2)c(=O)c2ccccc21 35.5 µM [inhibitor, single point], COC(=O)c1ccc(NC(=O)Cc2coc3cc(C)ccc23)cc1 39.8 µM [inhibitor, single point], CCOC(=O)C1CCC(CN(Cc2ccccc2)S(=O)(=O)c2ccc(Cl)cc2)CC1 (configuration not stated) 39.8 µM [inhibitor, single point], Cc1cc(C)c(Cn2c3ccccc3c3cnn(CC(=O)N4CCCCC4)c(=O)c32)c(C)c1 39.8 µM [inhibitor, partial curve, poor fit], Cc1c(Cl)cccc1NS(=O)(=O)c1ccc2[nH]cc(C(=O)NC3CCCC3)c(=O)c2c1 25.1 µM [inhibitor, partial curve, poor fit], Cc1ccc(S(=O)(=O)c2nc(-c3cccs3)oc2N2CCCCC2)cc1 35.5 µM [inhibitor, partial curve, poor fit], CC(=O)c1cccc(NS(=O)(=O)c2ccc3[nH]c4c(c3c2)CCCCCC4)c1 15.8 µM [inhibitor, partial curve], COc1ccc(NC(=O)CCS(=O)(=O)c2nc(-c3cccs3)cc(C(F)(F)F)n2)cc1OC 39.8 µM [inhibitor, single point], O=C(c1noc2c1CCCCC2)N1CCN(c2ccc(Cl)cc2)CC1 25.1 µM [inhibitor, single point], C#CC(C)(C)NS(=O)(=O)c1cc(-c2nnc(Nc3ccc(C)cc3)c3ccccc23)ccc1C 39.8 µM [inhibitor, single point], Cc1ccc(NC(=O)CN(c2ccccc2)S(=O)(=O)N(C)C)cc1Cl 28.2 µM [inhibitor, single point], CCc1c(C)sc2c1CCN(C(=O)Nc1cc(OC)c(OC)c(OC)c1)C2c1ccccc1 (configuration not stated) 39.8 µM [inhibitor, partial curve, poor fit], COc1ccc(C2=NC3(CCCCC3)N(CC(=O)Nc3ccc(C(C)C)cc3)C2=O)cc1 39.8 µM [inhibitor, single point], COc1cccc(C2CC(=O)Nc3cc4c(cc32)OCCO4)c1OC (configuration not stated) 14.1 µM [inhibitor, partial curve], Cc1ccccc1Cn1c(SCc2ccc(C(=O)NC(C)c3ccccc3)cc2)nc2ccncc21 (configuration not stated) 31.6 µM [inhibitor, single point], COc1ccc(C(=O)CN2CCN(S(=O)(=O)c3ccc(C(C)C)cc3)CC2)cc1 20 µM [inhibitor, partial curve, poor fit], O=C1CSC(=O)N1C(CCc1ccncc1)COc1ccc(-c2cccc([N+](=O)[O-])c2)cc1 (configuration not stated) 3.85 µM [inhibitor, partial curve], CCOc1ccc(Nc2nc3c(S(=O)(=O)c4cccc(Cl)c4)nnn3c3ccsc23)cc1 7.08 µM [inhibitor, single point], CCc1ccc(OCC(=O)N(Cc2ccco2)Cc2ccccc2Cl)cc1 28.2 µM [inhibitor, single point], O=C(Nc1ccc(-n2nncc2-c2ccccc2)cc1)c1cccc(F)c1 39.8 µM [inhibitor, single point], Cc1cc(C)cc(NC(=O)Cn2c(=O)n(-c3cc(C)cc(C)c3)c(=O)c3oc4ccccc4c32)c1 25.1 µM [inhibitor, single point], COc1cc(CN2CCc3nc(N4CCN(c5ncccn5)CC4)ncc3C2)cc(OC)c1OC 8.91 µM [inhibitor, full curve, poor fit], COc1ccc(-n2ccnc2SCC(=O)Nc2nnc(C)s2)cc1 39.8 µM [inhibitor, partial curve, poor fit], Cc1ccc(S(=O)(=O)NCCc2csc(-c3ccc(Cl)cc3)n2)cc1 14.1 µM [inhibitor, partial curve, poor fit], COc1cccc(C(=O)N(Cc2cccnc2)c2nc3c(OC)ccc(C)c3s2)c1OC 11.2 µM [inhibitor, partial curve, poor fit], CCOc1ccc(C(=O)c2cn(CC(=O)Nc3ccc(F)cc3)c3cc4c(cc3c2=O)OCCO4)cc1 28.2 µM [inhibitor, partial curve, poor fit], O=C(CSc1nnc(-c2ccccc2)c(-c2ccccc2)n1)NC1CCCC1 31.6 µM [inhibitor, partial curve], CCOC(=O)C1CCCN(S(=O)(=O)c2cc3c4c(c2)CC(=O)N4CCC3)C1 (configuration not stated) 35.5 µM [inhibitor, partial curve, poor fit], CCC(C)(C)NC(=O)C1CCN(S(=O)(=O)c2c(C)noc2/C=C/c2ccc(C)cc2)CC1 39.8 µM [inhibitor, single point]

Potency, inactive:
CCOC(=O)c1ccc(NC(=O)c2csc3c2CCCCC3)cc1, O=C(O)c1ccc2nc(-c3cc4cc(F)ccc4oc3=O)[nH]c2c1, CCc1cccc(C)c1Nc1c(-c2cccc(O)c2)nc2cnccn12, Cc1ccc(C)c(N2CCN(C(=O)c3ccc4c(c3)c(C)c(C)n4C)CC2)c1, COc1cc2c(cc1OC)C(COc1ccc3c(C)cc(=O)oc3c1)N(C(=O)c1ccc(C)c(C)c1)CC2 (configuration not stated), Cc1oc2c(c1C(=O)Nc1ccc(Cl)cc1F)C1=NCCN1C=N2, CCn1c2ccccc2c2nnc(N3CCN(c4cccc(C)c4C)CC3)nc21, Cc1ccc(-n2ncc3c(NCCc4ccccc4)ncnc32)cc1C, Cc1cc(C)cc(-n2c(SCC(=O)Nc3nnc(C)s3)nc3c([nH]c4ccccc43)c2=O)c1, Cc1ccc(-c2nc3nc(C)cc(N4CCN(c5cc(Cl)ccc5C)CC4)n3n2)cc1, Fc1ccc(NCc2cccn2-c2nnc(N3CCOCC3)s2)cc1, CCCCC(C)(C)[C@H](O)C=C[C@H]1[C@H](O)CC(=O)[C@H]1CC=CCCCC(=O)O, CCc1ccc(-c2nc(CN3CCC(C(=O)NCCc4ccc(Cl)cc4)CC3)c(C)o2)cc1, CCOc1cc(C(=O)NCCc2csc3nc(-c4ccccc4F)nn23)cc(OCC)c1OCC, COc1ccc(Cn2c(C(=O)O)c(CNCCc3ccco3)c3ccc(C)cc32)cc1, Cc1ccccc1OCC(=O)Nc1ccccc1C(=O)OCc1cc(=O)n2ccsc2n1, CCOc1cc(C2CC(=O)Nc3cc4c(cc32)OCCO4)ccc1O (configuration not stated)
